The campaign covered roughly 45,000 compounds. About 65 (0.1%) were called active. Calls follow the shape of the dose curve; as a rule, active = well fitted activation curve with a large enough effect; inconclusive = small, poorly fitted or top-dose-only effect; inactive = no such curve, though single readings can be large or run the other way. This is one part of the list.

This experiment deals with Galactocerebrosidase (Homo sapiens) (UniProt P54803). The experiment in a line: A Novel Cell-Based Assay to Identify Small Molecules for B -Galactocerebrosidase. Also: 0% is about no effect; nearly all actives have a fitted effect of over 65% in size. The following applies: 145M-Twi-hGALC-G270D cells (Twitcher mouse brain line with human GALC G270D), HMU-beta-Gal fluorescence, 48 h; series mostly up to 57.5 µM; activation: at the top concentration. The essentials: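 Mutant human GALC (G270D), stably expressed in a Twitcher mouse brain cell line lacking endogenous GALC, is measured in live-treated cells via 6-hexadecanoylamino-4-methylumbelliferyl-β-galactoside hydrolysis (0.1 mM final, pH 5.2) with fluorescent detection.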
UniProt P54803, sequence (P54803 whole entry, looked up): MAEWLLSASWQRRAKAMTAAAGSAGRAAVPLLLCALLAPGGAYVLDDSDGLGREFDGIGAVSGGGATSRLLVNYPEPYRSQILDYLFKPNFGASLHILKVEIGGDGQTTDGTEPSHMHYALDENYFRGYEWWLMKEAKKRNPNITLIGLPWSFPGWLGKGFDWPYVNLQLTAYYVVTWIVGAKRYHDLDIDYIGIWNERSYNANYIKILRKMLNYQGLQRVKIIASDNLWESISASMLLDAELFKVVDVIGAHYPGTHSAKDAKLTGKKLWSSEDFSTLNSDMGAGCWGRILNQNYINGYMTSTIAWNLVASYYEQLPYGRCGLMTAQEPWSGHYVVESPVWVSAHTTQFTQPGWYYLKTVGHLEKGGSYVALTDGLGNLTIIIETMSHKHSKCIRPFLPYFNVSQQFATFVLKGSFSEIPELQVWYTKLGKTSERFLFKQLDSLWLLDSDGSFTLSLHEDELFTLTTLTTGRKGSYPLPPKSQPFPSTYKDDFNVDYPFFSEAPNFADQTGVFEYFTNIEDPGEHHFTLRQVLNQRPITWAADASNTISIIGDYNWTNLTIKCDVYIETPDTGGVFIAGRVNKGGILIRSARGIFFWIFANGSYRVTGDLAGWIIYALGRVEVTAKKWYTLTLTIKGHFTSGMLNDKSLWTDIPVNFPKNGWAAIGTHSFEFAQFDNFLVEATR
Consider `COc1cccc(C(=O)Nc2cccc(C(=O)OCc3cc(=O)n4nc(C5CC5)sc4n3)c2)c1`, for which the “activation” value was inactive: -18.3%. On to `CCCn1c2ccccc2c2cnn(CC(=O)N(C)c3ccc(F)cc3)c(=O)c21`, for which the “activation” value was inactive: -5.58%.

In the case of `COc1cccc(CSc2nc3ccccc3c3nc(CCn4c(C)nc5ccccc54)nn23)c1`, the “activation” value was inactive: -16.3%. Consider `CSc1ncc(Cl)c(C(=O)Nc2ccc(NC(C)=O)cc2)n1`, for which the “activation” value was inactive: -6.77%. As for `CCC1CCCCN1C(=O)Cn1c(=O)n(CCCCCC(=O)NCc2ccccc2)c(=O)c2sccc21` (configuration not stated), the figure is inactive: 0.209%; as for `COc1ccc(Cl)cc1NC(=O)c1c(NCc2ccc(C)o2)sc2c1CCCCC2`, inactive: 12.3%. The result for `COc1cccc(NC(=O)c2ccc3nc(CCc4ccccc4)oc3c2)c1` reads inactive: -18.4%; that for `CCCCNc1nc(Oc2ccc(OCC)nn2)nc(N2CCOCC2)n1`, inactive: -11.2%; that for `COc1ccccc1CNC(=O)CCC(=O)N1CC2CCCN2c2ccccc21` (configuration not stated), inactive: -6.95%.

Turning to `COc1ccc(-c2[nH]c3ccccc3c2SCCNC(=O)c2cc(OC)c(OC)c(OC)c2)cc1`, the “activation” value is inactive: -8.23%.

As to `O=C(NCc1ccc2c(c1)CCN2C(=O)c1ccc(F)cc1)c1cc2ccccc2[nH]1`, the “activation” value is inactive: -18.2%. As for `COc1ccc(SCc2cc(=O)c3cc(Cl)ccc3[nH]2)cc1`, the figure is inactive: -21%; as for `c1ccc(CNc2nc3c(-c4ccccc4)nnn3c3ccccc23)cc1`, inactive: -21.3%; as for `O=C(Cc1ccc(Cl)cc1)Nc1ccc2nn(-c3ccc(Cl)cc3)nc2c1`, inactive: -5.44%.

`COc1cccc(NC(=O)C2CCCN(S(=O)(=O)c3c(C)nn(C)c3C)C2)c1` (configuration not stated): the “activation” value is inactive: -1.84%. Take `Cc1cccc(C)c1OCCn1c(C2CC(=O)N(c3cccc(Cl)c3)C2)nc2ccccc21` (configuration not stated): the “activation” value was inactive: -13.9%. Turning to `CCOc1ccc(S(=O)(=O)NCCc2sc3nc(-c4ccc(F)cc4)nn3c2C)cc1`, the “activation” value is inactive: -11.5%.

In the case of `CCn1c2ccccc2c2cc(CN3CCN(Cc4ccccc4F)CC3)ccc21`, the “activation” value is inactive: -5.57%. In the case of `CCOc1ccc(CCNC(=O)c2cn(CC)c3ccc(S(=O)(=O)N4CCc5ccccc5C4)cc3c2=O)cc1OCC`, the “activation” value is inactive: -16.3%. `CC(C)Sc1oc(-c2cccs2)nc1S(=O)(=O)c1ccc(Cl)cc1`: the “activation” value is inactive: -27.1%. As for `CCc1ccccc1N1C(=O)N(Cc2ccc(C#N)cc2)c2ccccc2S1(=O)=O`, the figure is inactive: -24.4%; as for `NC(N)=NC(N)=NCCc1ccccc1`, inactive: -19.3%.

In the case of `CCOc1ccc(OCC)c(NS(=O)(=O)c2cc(-c3cc(C)no3)ccc2C)c1`, the “activation” value was inactive: -13.4%. The result for `Cc1ccc(CNC(=O)c2ccc(Cn3c(=O)c4ccccc4n(CC(=O)Nc4ccc(C)cc4C)c3=O)cc2)cc1` reads inactive: -9.7%; that for `CCOc1ccc(NC(=O)NCc2c(-n3cccc3)sc3c2CCCC3)cc1`, inactive: -19.3%. Regarding `Cc1oc2ncnc(N3CCCCC3)c2c1C(=O)N1CCN(c2cccc(C(F)(F)F)c2)CC1`, the “activation” value is inactive: -24.7%.

Regarding `CC(=O)c1ccc(NC(=O)CSc2nnc3ccc(-c4ccc(Cl)cc4)nn23)cc1`, the “activation” value was inactive: -14.8%. As for `Cc1ccc(Nc2c(-c3cccs3)nc3nc(C)cc(C)n23)cc1`, the figure is inactive: -7.48%; as for `CCOc1ccc(NC(=O)C2CCCN(S(=O)(=O)c3cccc4nonc34)C2)cc1` (configuration not stated), inactive: -11.6%; as for `CCOc1ccccc1NC(=O)C(=O)NCCc1sc(-c2cccc(F)c2)nc1C`, inactive: -4.03%.

With `COc1ccc(-c2cc(C(F)(F)F)nc(S(=O)(=O)CCCC(=O)Nc3cccc(O)c3)n2)cc1OC`, the “activation” value is inactive: -13.9%.

As for `CCC(=O)Oc1ccc(/C=C(\C#N)c2nc3ccccc3[nH]2)cc1OC`, the “activation” value is inactive: -0.953%. Regarding `CCCC(=O)N1CCN(c2nc3c(OC)ccc(C)c3s2)CC1`, the “activation” value is inactive: -9.35%. The result for `CC(C)(C)OC(=O)N1CCC(c2c(C(=O)N3CCN(C(=O)c4ccco4)CC3)cnn2-c2cccc(F)c2)CC1` reads inactive: 8.58%; that for `CCOc1ccc(-n2c(SCC(=O)N3CCOCC3)nc3c([nH]c4ccccc43)c2=O)cc1`, inactive: -4.69%. For the compound `COc1ccc2c(c1OC)C(=O)O[C@@H]2[C@H]1c2c(cc3c(c2OC)OCO3)CCN1C`, the “activation” value is inactive: -10.7%. As for `COc1cc(C(=O)Nc2ccc3nc(SCc4ccc(C)cc4)sc3c2)cc(OC)c1OC`, the figure is inactive: -22.8%; as for `Cc1ccc(Cl)cc1-n1ncc2c(NC3CCCCCC3)ncnc21`, inactive: -6.63%; as for `Cc1ccc(-n2nc(C(=O)N3CCC(C)CC3)c(=O)n(C)c2=O)cc1`, inactive: -17.7%. As for `Cc1ccc(C)c(Nc2nnc(-n3nc(C)cc3C)c3ccccc23)c1`, the figure is inactive: -28.2%; as for `O=C(Nc1cccc(F)c1)c1ccc2snnc2c1`, inactive: -19%.

On to `CCN(c1ccccc1)S(=O)(=O)c1nnc(NC(=O)c2cccs2)s1`, for which the “activation” value is inactive: -6.43%.

As for `Cc1nc(N2CCOCC2)c2c(C(=O)Nc3cccc(C(F)(F)F)c3)c(C)oc2n1`, the “activation” value is inactive: -6.32%.

For `Cc1ccc(S(=O)(=O)NCCS(=O)(=O)N2CCN(c3ccccc3)CC2)cc1`, the “activation” value was inactive: -21.9%. The result for `COc1ccc(CNC(=O)C2CCN(Cc3nc(-c4ccc(Cl)cc4)oc3C)CC2)cc1` reads inactive: 4.91%. The result for `Cc1ccc(Cc2nc3ccccc3nc2SCC(=O)Nc2ccc3c(c2)OCO3)cc1` reads inactive: 6.31%; that for `O=C(NC1CC(=O)N(c2cccc(F)c2)C1)c1ccc(Br)o1` (configuration not stated), inactive: 7.06%. As for `CSc1ccc(CCNC(=O)CCc2c(C)nc3c(c(C)nn3-c3ccccc3)c2C)cc1`, the figure is inactive: -10.7%; as for `Cc1ccc(CNC(=O)C(CC(C)C)NS(=O)(=O)c2ccc3c(c2)oc(=O)n3C)cc1` (configuration not stated), inactive: -9.89%. For the compound `O=C(O)c1cc(-n2c(/C=C\c3ccc(F)cc3)nc3ccccc3c2=O)ccc1Cl`, the “activation” value is inactive: 2.58%.

As for `O=C(NCc1ccc(Cl)cc1)c1cnc(N2CCCCC2)c2ccccc12`, the “activation” value was inactive: -2.29%. The result for `Cc1cccc(N2CCN(CCNC(=O)C3COc4ccccc4C3)CC2)c1C` (configuration not stated) reads inactive: -8.4%; that for `Cc1c(S(=O)(=O)c2cccc(Cl)c2)nnn1-c1cccc(C(F)(F)F)c1`, inactive: -27.5%. On to `CC(=O)c1ccc(NC(=O)CCSc2nc(-c3ccco3)cc(C(F)(F)F)n2)cc1`, for which the “activation” value was inactive: -16.5%. The result for `COc1ccc(OC)c(NC(=O)c2noc3c2CCCC3)c1` reads inactive: -2.12%; that for `CCOC(=O)Cc1ccc(NC(=O)N2CCOc3ccc(C)cc32)cc1`, inactive: -17.7%. The result for `COC(=O)c1c(-c2ccc(Cl)cc2)noc1N1CCN(c2ccc(C)cc2C)CC1` reads inactive: -12.3%; that for `CC(C)c1ccc(NC(=O)C2CCCN(S(=O)(=O)c3cccc4cccnc34)C2)cc1` (configuration not stated), inactive: -11.5%. The result for `CCCCN(C)CCCNC(=O)C1CCN(c2nc3ccc(CC)cc3s2)CC1` reads inactive: -16.8%. On to `CCc1nnc2c3ccccc3nc(Nc3ccc(C(C)=O)cc3)n12`, for which the “activation” value was inactive: -7.15%. Regarding `CCOC(=O)Cn1c(=O)oc2cc(S(=O)(=O)N3CCN(c4cccc(C)c4C)CC3)ccc21`, the “activation” value is inactive: -7.15%. Consider `Cc1ccc2nc(N(Cc3cccnc3)C(=O)COc3ccccc3)sc2c1`, for which the “activation” value was inactive: -16%.

For the origin of these results see PubChem BioAssay AID1159614 (National Center for Advancing Translational Sciences (NCATS), 2016).
